The supplement of paper PMC11125491
± gives the standard deviation of the averaged measurements. Growth of baker's yeast expressing single-residue variants of Pneumocystis jirovecii dihydrofolate reductase in 8.8 or 44 µM methotrexate (about 75% and 90% inhibition of the wild type). Selection coefficient per generation; 0 = like wild type, above 0 = less sensitive, below 0 = more sensitive or loss of function. No active / inactive call per row; the paper calls resistant above 0.220 (8.8 µM) or 0.243 (44 µM) together with a significance test. At 44 µM about 15% of codons end with one read or none, so the lowest values are floors (replicate rank correlation 0.74; 0.94 at 8.8 µM).

B1: UniProt A0EPZ9; numbered along this chain (parent)
chain: MDWQKSLTLIVALTLSRGIGLKNDLPWKLKSDMMFFSRVTSGLLVTRSTGQMNVVLMGRKTWESLPAHSRPLKNRINVVISRQEVLDLGGGAYHARSLDDALALLSQIYDSTSKIQLNRVFVIGGGELCKAAMEHSRLNRIIATVIHNEVDCDVFFPIDFRSSQSCLPWRKQDHSVLEAWVGSKVPQGKINENGFIYEFEMWIRDI

Variants of: B1
Assay: selection coefficient against synonymous wild-type codons (log2 per generation); higher = faster growth than wild type
Conditions: with Saccharomyces cerevisiae carrying the variant on a plasmid
Method: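 Pooled growth of yeast carrying single-residue variants of P. jirovecii dihydrofolate reductase (own DFR1 gene intact), two passages at 30 °C, three cultures, sequenced before and after. Codons with under 15 starting reads are left out; codons of one change are averaged.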

| Variant | selection coefficient against synonymous wild-type codons (log2) (methotrexate 8.8 µM) | selection coefficient against synonymous wild-type codons (log2) (methotrexate 44 µM) |
| --- | --- | --- |
| MIWQKSLTLIVALTLSRGIGLKNDLPWKLKSDMMFFSRVTSGLLVTRSTGQMNVVLMGRKTWESLPAHSRPLKNRINVVISRQEVLDLGGGAYHARSLDDALALLSQIYDSTSKIQLNRVFVIGGGELCKAAMEHSRLNRIIATVIHNEVDCDVFFPIDFRSSQSCLPWRKQDHSVLEAWVGSKVPQGKINENGFIYEFEMWIRDI [D2I] | 0.0857 ± 0.021 | -0.074 ± 0.05 |
| MQWQKSLTLIVALTLSRGIGLKNDLPWKLKSDMMFFSRVTSGLLVTRSTGQMNVVLMGRKTWESLPAHSRPLKNRINVVISRQEVLDLGGGAYHARSLDDALALLSQIYDSTSKIQLNRVFVIGGGELCKAAMEHSRLNRIIATVIHNEVDCDVFFPIDFRSSQSCLPWRKQDHSVLEAWVGSKVPQGKINENGFIYEFEMWIRDI [D2Q] | 0.117 ± 0.085 | 0.0235 ± 0.086 |
| MCWQKSLTLIVALTLSRGIGLKNDLPWKLKSDMMFFSRVTSGLLVTRSTGQMNVVLMGRKTWESLPAHSRPLKNRINVVISRQEVLDLGGGAYHARSLDDALALLSQIYDSTSKIQLNRVFVIGGGELCKAAMEHSRLNRIIATVIHNEVDCDVFFPIDFRSSQSCLPWRKQDHSVLEAWVGSKVPQGKINENGFIYEFEMWIRDI [D2C] | -0.11 ± 0.07 | 0.0939 ± 0.15 |
| MHWQKSLTLIVALTLSRGIGLKNDLPWKLKSDMMFFSRVTSGLLVTRSTGQMNVVLMGRKTWESLPAHSRPLKNRINVVISRQEVLDLGGGAYHARSLDDALALLSQIYDSTSKIQLNRVFVIGGGELCKAAMEHSRLNRIIATVIHNEVDCDVFFPIDFRSSQSCLPWRKQDHSVLEAWVGSKVPQGKINENGFIYEFEMWIRDI [D2H] | -0.0405 ± 0.11 | -0.128 ± 0.088 |
| MPWQKSLTLIVALTLSRGIGLKNDLPWKLKSDMMFFSRVTSGLLVTRSTGQMNVVLMGRKTWESLPAHSRPLKNRINVVISRQEVLDLGGGAYHARSLDDALALLSQIYDSTSKIQLNRVFVIGGGELCKAAMEHSRLNRIIATVIHNEVDCDVFFPIDFRSSQSCLPWRKQDHSVLEAWVGSKVPQGKINENGFIYEFEMWIRDI [D2P] | 0.0328 ± 0.065 | 0.0258 ± 0.16 |
| MEWQKSLTLIVALTLSRGIGLKNDLPWKLKSDMMFFSRVTSGLLVTRSTGQMNVVLMGRKTWESLPAHSRPLKNRINVVISRQEVLDLGGGAYHARSLDDALALLSQIYDSTSKIQLNRVFVIGGGELCKAAMEHSRLNRIIATVIHNEVDCDVFFPIDFRSSQSCLPWRKQDHSVLEAWVGSKVPQGKINENGFIYEFEMWIRDI [D2E] | 0.315 ± 0.011 | 0.315 ± 0.046 |
| MAWQKSLTLIVALTLSRGIGLKNDLPWKLKSDMMFFSRVTSGLLVTRSTGQMNVVLMGRKTWESLPAHSRPLKNRINVVISRQEVLDLGGGAYHARSLDDALALLSQIYDSTSKIQLNRVFVIGGGELCKAAMEHSRLNRIIATVIHNEVDCDVFFPIDFRSSQSCLPWRKQDHSVLEAWVGSKVPQGKINENGFIYEFEMWIRDI [D2A] | 0.0175 ± 0.064 | 0.0794 ± 0.12 |
| MSWQKSLTLIVALTLSRGIGLKNDLPWKLKSDMMFFSRVTSGLLVTRSTGQMNVVLMGRKTWESLPAHSRPLKNRINVVISRQEVLDLGGGAYHARSLDDALALLSQIYDSTSKIQLNRVFVIGGGELCKAAMEHSRLNRIIATVIHNEVDCDVFFPIDFRSSQSCLPWRKQDHSVLEAWVGSKVPQGKINENGFIYEFEMWIRDI [D2S] | 0.082 ± 0.061 | 0.0699 ± 0.14 |
| MNWQKSLTLIVALTLSRGIGLKNDLPWKLKSDMMFFSRVTSGLLVTRSTGQMNVVLMGRKTWESLPAHSRPLKNRINVVISRQEVLDLGGGAYHARSLDDALALLSQIYDSTSKIQLNRVFVIGGGELCKAAMEHSRLNRIIATVIHNEVDCDVFFPIDFRSSQSCLPWRKQDHSVLEAWVGSKVPQGKINENGFIYEFEMWIRDI [D2N] | 0.139 ± 0.026 | -0.0635 ± 0.081 |
| MMWQKSLTLIVALTLSRGIGLKNDLPWKLKSDMMFFSRVTSGLLVTRSTGQMNVVLMGRKTWESLPAHSRPLKNRINVVISRQEVLDLGGGAYHARSLDDALALLSQIYDSTSKIQLNRVFVIGGGELCKAAMEHSRLNRIIATVIHNEVDCDVFFPIDFRSSQSCLPWRKQDHSVLEAWVGSKVPQGKINENGFIYEFEMWIRDI [D2M] | 0.0835 ± 0.095 | 0.243 ± 0.12 |
| MGWQKSLTLIVALTLSRGIGLKNDLPWKLKSDMMFFSRVTSGLLVTRSTGQMNVVLMGRKTWESLPAHSRPLKNRINVVISRQEVLDLGGGAYHARSLDDALALLSQIYDSTSKIQLNRVFVIGGGELCKAAMEHSRLNRIIATVIHNEVDCDVFFPIDFRSSQSCLPWRKQDHSVLEAWVGSKVPQGKINENGFIYEFEMWIRDI [D2G] | 0.00429 ± 0.067 | 0.00769 ± 0.11 |
| MVWQKSLTLIVALTLSRGIGLKNDLPWKLKSDMMFFSRVTSGLLVTRSTGQMNVVLMGRKTWESLPAHSRPLKNRINVVISRQEVLDLGGGAYHARSLDDALALLSQIYDSTSKIQLNRVFVIGGGELCKAAMEHSRLNRIIATVIHNEVDCDVFFPIDFRSSQSCLPWRKQDHSVLEAWVGSKVPQGKINENGFIYEFEMWIRDI [D2V] | 0.0451 ± 0.09 | 0.0923 ± 0.13 |
| MTWQKSLTLIVALTLSRGIGLKNDLPWKLKSDMMFFSRVTSGLLVTRSTGQMNVVLMGRKTWESLPAHSRPLKNRINVVISRQEVLDLGGGAYHARSLDDALALLSQIYDSTSKIQLNRVFVIGGGELCKAAMEHSRLNRIIATVIHNEVDCDVFFPIDFRSSQSCLPWRKQDHSVLEAWVGSKVPQGKINENGFIYEFEMWIRDI [D2T] | 0.121 ± 0.063 | 0.179 ± 0.14 |
| MFWQKSLTLIVALTLSRGIGLKNDLPWKLKSDMMFFSRVTSGLLVTRSTGQMNVVLMGRKTWESLPAHSRPLKNRINVVISRQEVLDLGGGAYHARSLDDALALLSQIYDSTSKIQLNRVFVIGGGELCKAAMEHSRLNRIIATVIHNEVDCDVFFPIDFRSSQSCLPWRKQDHSVLEAWVGSKVPQGKINENGFIYEFEMWIRDI [D2F] | -0.379 ± 0.07 | -0.149 ± 0.038 |
| MLWQKSLTLIVALTLSRGIGLKNDLPWKLKSDMMFFSRVTSGLLVTRSTGQMNVVLMGRKTWESLPAHSRPLKNRINVVISRQEVLDLGGGAYHARSLDDALALLSQIYDSTSKIQLNRVFVIGGGELCKAAMEHSRLNRIIATVIHNEVDCDVFFPIDFRSSQSCLPWRKQDHSVLEAWVGSKVPQGKINENGFIYEFEMWIRDI [D2L] | -0.133 ± 0.18 | -0.195 ± 0.17 |
